# According to PubChem BioAssay AID995 (National Center for Advancing Translational Sciences (NCATS), 2007):
# Screen size: about 72,000 compounds; about 710 (0.99%) were called active. Inconclusive means that the source gave no clear call. Such entries were picked first, then a sample of the others. Calls follow the shape of the dose curve; as a rule, active = well fitted inhibition curve with a large enough effect; inconclusive = small, poorly fitted or top-dose-only effect; inactive = no such curve, though single readings can be large or run the other way. Potencies of inconclusive entries are left out as doubtful fits.
# Experiment: qHTS Assay for Inhibitors of the ERK Signaling Pathway using a Homogeneous Screening Assay; also: nearly all actives have a fitted effect of over 55% in size
# Settings: HEK293-V1b, vasopressin-stimulated pERK AlphaScreen; activity, negative = inhibition: at 57.5 µM (top of the series) unless noted
# Outline: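 HEK293 cells stably expressing V1b receptor, seeded overnight in 1% FBS, were treated with compounds for 30 min at 37C, then stimulated 5 min with 25 nM vasopressin; phospho-ERK read by AlphaScreen SureFire after lysis.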
# % is scaled to controls: 0 for no effect and ±100 for the full control effect; potency is read from the fitted curve at half-maximal effect; tags tell the direction and shape of the fitted curve.
Compound,Potency,"activity, negative = inhibition"
CC(C)Nc1nc(N(c2ccccc2)c2ccccc2)nc(-n2ccnc2)n1,"inconclusive [inhibitor, full curve, poor fit]",
Cc1cc(C)c2c(c1)-c1cc(C)nn1C(c1ccc3c(c1)OCO3)N2 (stereo not drawn),"inconclusive [inhibitor, partial curve]",
CS(=O)(=O)N1CCC2(CCCN(c3ccncc3)C2)CC1,"inconclusive [inhibitor, partial curve]",
CC(=O)N1CCC2(CCCN(c3ccccc3)C2)CC1,inactive,
O=C(Nc1nc(-c2nc3ccccc3s2)cs1)c1ccc(S(=O)(=O)N2CCOCC2)cc1,active: 3.16 µM,
Clc1ccc2c(NC3CCC(N4CCCCC4)CC3)ccnc2c1 (stereo not drawn),,inactive: -15.1% [at 11.5 µM]
COc1ccc(NS(=O)(=O)c2ccc(I)cc2)cc1N1CCN(C)CC1,inactive,
CNc1nc(-c2cccc(NS(C)(=O)=O)c2)nc2ccccc12,inactive,
N#Cc1cccc(-c2cncnc2NCc2cccnc2)c1,"inconclusive [inhibitor, full curve, poor fit]",
COc1cc(NC(=O)c2cccc3c2C(=O)N(Cc2cccnc2)C3)cc(OC)c1OC,inactive,
Nc1nc2c3ccccc3nc(C3CC3)n2n1,"inconclusive [inhibitor, full curve]",
CCCOc1cccc(C(=O)Nc2cccnc2)c1,"inconclusive [inhibitor, partial curve]",
O=C(COC(=O)c1cc(=O)[nH]c2ccccc12)NC(=O)NC1CCCCC1,"inconclusive [inhibitor, single point]",
C=CCn1c(SCC(=O)N2CCOCC2)nc2scc(-c3ccco3)c2c1=O,active: 31.6 µM,
Ic1ccc(N2CCN(Cc3c[nH]c4ncccc34)CC2)cc1,"inconclusive [inhibitor, partial curve]",
CCCCCCC1=Cc2cc(OC)c(OC)cc2C(C2(C(=O)OCC)CCCC2=O)O1 (stereo not drawn),,inactive: 23.2% [at 11.5 µM]
Cc1onc(-c2ccccc2)c1C(=O)NCCc1c[nH]c2ccccc12,inactive,
O=C(NCc1cccs1)C1CCN(c2ccc(S(=O)(=O)N3CCOCC3)cc2Cl)CC1,"inconclusive [inhibitor, partial curve]",
CCOC(=O)N1CCN(c2c(N3CCC(N4CCCCC4)CC3)c(=O)c2=O)CC1,"inconclusive [inhibitor, single point]",
CCCCn1c(SCC(=O)Nc2cc(C)[nH]n2)nc2ccsc2c1=O,"inconclusive [inhibitor, partial curve]",
COc1cc(-c2noc(-c3ccccc3C(=O)NCc3ccco3)n2)cc(OC)c1OC,"inconclusive [inhibitor, full curve]",
COc1cccc2c1C(=O)c1c(O)c3c(c(O)c1C2=O)C[C@@](O)(C(C)=O)C[C@@H]3O[C@H]1C[C@H](N)[C@H](O)[C@H](C)O1,"inconclusive [inhibitor, partial curve]",

Compound,Potency,"activity, negative = inhibition"
CCc1nc(N2CCC(C)CC2)c2oc3ccccc3c2n1,inactive,
CCN(CC)c1ccc(NC(=O)C2CC3CCC2C3)cc1 (stereo not drawn),"inconclusive [inhibitor, partial curve]",
CCNc1ncc2nc(-c3ccc(OC)cc3)c(=O)n(CCc3ccccc3)c2n1,"inconclusive [inhibitor, partial curve]",
N#CC1=C(N)Oc2c(sc3ccccc23)C1c1ccco1 (stereo not drawn),"inconclusive [inhibitor, partial curve]",
O=C(/C=C\c1ccc(O)cc1)c1ccc(O)cc1O,"inconclusive [inhibitor, full curve, poor fit]",
CC1(C)CC(=O)C(C(c2ccco2)C2C(=O)CC(C)(C)CC2=O)C(=O)C1,inactive,
c1ccc(-c2onc3cc4c(cc23)OCCO4)cc1,"inconclusive [inhibitor, partial curve]",
O=C(CSc1nnc(-c2ccc(Cl)s2)o1)N1CCCc2ccccc21,inactive,
CC(=O)OC1CC[C@]2(C)C(CC[C@@]3(C)C2C(=O)C=C2C4C(C)C(C)CC[C@@]4(C(=O)O)CCC23C)C1(C)C (stereo partly drawn),inactive,
O=C(Nc1cccc(C(=O)Nc2ccc(S(=O)(=O)O)c3cc(S(=O)(=O)O)cc(S(=O)(=O)O)c23)c1)Nc1cccc(C(=O)Nc2ccc(S(=O)(=O)O)c3cc(S(=O)(=O)O)cc(S(=O)(=O)O)c23)c1,inactive,
COC(=O)Nc1ncc(CN2C(=O)c3ccccc3C2=O)s1,"inconclusive [inhibitor, full curve]",
CCOC(=O)C1C(=O)C=C(c2cccc(NS(C)(=O)=O)c2)CC1c1ccco1 (stereo not drawn),"inconclusive [inhibitor, single point]",
COC(=O)C1=C(C)NC(C)=C(C(=O)OCCN(C)Cc2ccccc2)[C@@H]1c1cccc([N+](=O)[O-])c1,inactive,
CNC(=O)c1ccccc1NC(=O)c1cccc(S(=O)(=O)N2CCC(C)CC2)c1,"inconclusive [inhibitor, single point]",
CCOc1ccccc1-c1nnc(SCC(=O)Nc2ccccc2)o1,"inconclusive [inhibitor, partial curve, poor fit]",
Cc1nc(N2CCN(Cc3ccccc3)CC2)nc2c1C(=O)CC(c1ccco1)C2 (stereo not drawn),"inconclusive [inhibitor, partial curve, poor fit]",
CCNc1nc(NC(C)C)nc(N(C#N)CCOc2ccc(Cl)cc2Cl)n1,inactive,
COc1cc(NS(=O)(=O)c2cc(C)ccc2OC)c(OC)cc1Cl,"inconclusive [inhibitor, partial curve]",
N#Cc1nc(COc2ccc(Br)cc2)oc1N1CCCCCC1,"inconclusive [inhibitor, partial curve]",
CCCCCCCCC(=O)NCc1cc(OC)c(O)cc1I,"inconclusive [inhibitor, single point]",
NS(=O)(=O)c1ccc(CCNC(=O)CNC(=O)C2CCCCC2)cc1,inactive,
